Experimental findings from PubChem BioAssay AID1224903 (Bradner/Qi Labs at DFCI, 2016) are described below.

Molecules are shown by their SMILES. The list shows a part of the results. These are further read-outs of the screen, such as a control signal, another cell line or another target. No call is given for them. The list favours compounds with an active or inconclusive main result.

In the assay the target is Chromobox protein homolog 7 (Homo sapiens) (UniProt O95931). The experiment in a line: blockers of CBX7 binding to H3K27me3 peptide – biochemical, AlphaScreen, primary screen (AID 1224903). Conditions: AlphaScreen His6-CBX7 / biotin-H3K27me3 peptide binding; measured here: z-score of CBX7 signal; stronger effect = lower value. For orientation: Alpha assays give light when donor and acceptor beads are brought close together.
Sequence of UniProt O95931 (O95931 whole entry, looked up): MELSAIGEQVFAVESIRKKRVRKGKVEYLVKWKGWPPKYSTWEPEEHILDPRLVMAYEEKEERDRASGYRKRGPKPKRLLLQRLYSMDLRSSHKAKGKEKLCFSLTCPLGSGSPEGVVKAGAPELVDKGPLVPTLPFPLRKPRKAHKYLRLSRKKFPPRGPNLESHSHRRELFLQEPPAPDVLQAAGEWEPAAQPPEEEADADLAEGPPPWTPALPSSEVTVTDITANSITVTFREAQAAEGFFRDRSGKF
`N#Cc1c(-c2ccc(F)cc2)c(C#N)c(=O)n(N)c1N` showed a z-score of -22.4.

In turn, `O=[N+]([O-])c1ccc(-c2cn(-c3ccccc3NCc3ccccc3)cn2)o1` yielded a z-score of -6.66.

Take `COc1ccc(Oc2cc([N+](=O)[O-])cc3c2C(=O)Nc2cc(Cl)ccc2O3)cc1`: the z-score is -10.6.

In turn, `COc1ccc(CCNc2oc(COc3cccc(C)c3)nc2C#N)cc1OC` showed a z-score of -9.78.

As for `Oc1cccc(-c2nc(-c3ccccc3)c(-c3ccccc3)[nH]2)c1`, the z-score was -0.655.

As for `CCCN1CCN(C(=O)C2CCCN(c3nc4ccc(OCC)cc4s3)C2)CC1` (configuration not stated), the z-score is -13.4.

Regarding `COc1ccc(-c2nc3sccn3c2Nc2ccc3c(c2)OCO3)cc1`, the z-score was -19.9.

`COc1ccc(C(=O)Nc2nnc(-c3cccc(C)c3)o2)cc1OC`: the z-score is -11.1.

Take `CCCCN(CC)S(=O)(=O)c1ccc(C(=O)Nc2nnc(COC)o2)cc1`: the z-score was -1.63.

In turn, `COc1ccc(-c2c(C)nn3c(NCc4ccccn4)cc(C)nc23)cc1OC` displayed a z-score of -15.1.

Turning to `CCOC(=O)c1cnc2c(C)cccc2c1Nc1ccc(N(CC)CC)cc1`, the z-score was -10.1.

Take `Cc1nnc(NC(=O)c2ccc(S(=O)(=O)N3CCCC3)cc2)o1`: the z-score is -1.29.

The molecule `CCOC(=O)c1cnc2c(C)cc(Cl)cc2c1Nc1ccc(N2CCOCC2)cc1` displayed a z-score of -3.27.

Consider `Cc1ccccc1NC(=O)c1cnc(Nc2nc3ccccc3o2)nc1C`, for which the z-score is -16.4.

The molecule `COc1ccccc1OCCCCCCc1c(C)n[nH]c1C` gave a z-score of -17.9.

For the molecule `CN(C)c1ccc(Nc2nc(-c3ccccc3Cl)nc3ccccc23)cc1`, the z-score was -20.9.

With `Cc1ccc(S(=O)(=O)Nc2cccc3cccnc23)cc1`, the z-score is -19.5.

Take `Cc1cccn2c(Nc3ccc4c(c3)OCCO4)c(-c3ccc(N(C)C)cc3)nc12`: the z-score is -22.1.

`O=S(=O)(Nc1nccs1)c1ccc(Nc2nnc(-c3ccccc3)c3ccccc23)cc1` showed a z-score of -1.3.

In turn, `COc1cc(Nc2nc(-c3ccc(C)cc3)cs2)c(OC)cc1Cl` displayed a z-score of -5.96.

Turning to `CCCC(=O)NC(c1ccc(OC)c(OC)c1)c1cc(Cl)c2cccnc2c1O` (configuration not stated), the z-score was -2.06.

Regarding `CC(C)c1ccc(NC(=O)C(c2ccccc2)N2CCc3ccccc32)cc1` (configuration not stated), the z-score was -3.16.

In turn, `CC(C)n1cnc2cc(NCc3cccc4ccccc34)ccc21` displayed a z-score of -21.5.

`CC(C)OCc1ccc(O)c2ncccc12` displayed a z-score of -26.5.

`CCN(Cc1ccccc1)S(=O)(=O)c1ccc(C(=O)Nc2nnc(C)o2)cc1`: the z-score is -1.32.

In turn, `Cc1cccn2c(Nc3ccc(C(C)C)cc3)c(-c3ccccn3)nc12` gave a z-score of -1.28.

The molecule `CCN(CCCNC(=O)Cc1cn(C)c2ccccc12)c1ccccc1` returned a z-score of -10.7.

With `O=C(Nc1nc(-c2ccccn2)cs1)c1ccc(N2C(=O)CCC2=O)cc1`, the z-score is -23.1.

`N#CCCN(CCC#N)S(=O)(=O)c1ccc(C(=O)Nc2nnc(C3CC3)o2)cc1` displayed a z-score of -2.79.

Regarding `COc1ccc2[nH]c(C)c(CCNCC(C)Cc3ccc4c(c3)OCO4)c2c1` (configuration not stated), the z-score was -11.9.

Molecule `Cc1ccc(OCc2nc(C#N)c(N3CCN(Cc4ccccc4)CC3)o2)cc1` showed a z-score of -9.83.

As to `Oc1ccc(Nc2nc(-c3ccc(Cl)cc3)cs2)cc1`, the z-score was -4.

Consider `Cc1ccc(S(=O)(=O)c2nc(-c3ccccc3F)oc2N2CCCCC2)cc1`, for which the z-score is -4.94.

As for `COc1ccc(-n2cnc3cc(NCc4cccc5ccccc45)ccc32)cc1`, the z-score was -4.32.

In turn, `CCC(=O)Nc1nc(C)c(-c2csc(Nc3ccc(OC)cc3)n2)s1` returned a z-score of -0.594.

Molecule `CC1CCCN(S(=O)(=O)c2ccc(C(=O)Nc3nnc(-c4ccccc4Cl)o3)cc2)C1` (configuration not stated) displayed a z-score of -16.7.

As for `COc1ccccc1N1CCN(Cc2cc(Br)c(O)c3ncccc23)CC1`, the z-score was -24.4.

Consider `O=S(=O)(c1ccc(Cl)cc1)N(CCCN1CCOCC1)Cc1cccs1`, for which the z-score was -4.01.

Turning to `C1=CC2=C(CO1)OCc1c2[nH]c2ccc3ccccc3c12`, the z-score is -11.2.

With `COc1ccc(Cl)cc1NC(=O)CSc1nccn1-c1ccc(F)cc1`, the z-score is -2.12.

Molecule `O=S(=O)(Nc1cccc2cccnc12)c1ccccc1O` displayed a z-score of -21.3.

`Cc1ccn2c(NC3CCCCC3)c(-c3ccccn3)nc2c1` had a z-score of -14.4.

The molecule `O=C(Nc1nc(SCc2ccccc2Cl)ns1)c1ncn[nH]1` returned a z-score of -11.2.

`CCCC1CCC(c2ccc(-c3noc(-c4ccc(O)c(F)c4)n3)cc2)CC1` (configuration not stated) displayed a z-score of -0.668.

In turn, `COc1cc(OC)cc(-c2nnc(NC(=O)c3ccc(S(=O)(=O)N(C)Cc4ccccc4)cc3)o2)c1` gave a z-score of -15.5.

For `COc1ccc(N2CCN(C(c3cccs3)C(C)NS(=O)(=O)c3ccc(F)cc3)CC2)cc1` (configuration not stated), the z-score was -6.57.

In the case of `COc1ccc(-c2nnc(NC(=O)c3ccc(S(=O)(=O)N(C)Cc4ccccc4)cc3)o2)c(OC)c1`, the z-score was -16.8.

Regarding `Fc1ccc(Nc2c(-c3ccccn3)nc3ccccn23)cc1`, the z-score was -9.05.

As for `CC1CN(S(=O)(=O)c2ccc(C(=O)Nc3nnc(-c4ccccc4Cl)o3)cc2)CC(C)O1` (configuration not stated), the z-score is -4.22.

In turn, `COc1ccc(CNc2nc(SCC(=O)Nc3cc(C)[nH]n3)nc3ccccc23)cc1` showed a z-score of -1.75.

For the molecule `Cc1ccc(C)c(N2CCN(C(=O)CC3Sc4ccccc4NC3=O)CC2)c1` (configuration not stated), the z-score was -9.5.

The molecule `CCc1cc(C(=O)Cc2ccc3ccccc3n2)c(O)cc1OC` yielded a z-score of -2.84.

Molecule `O=C(O)c1c[nH]c2ccc(S(=O)(=O)NCCCN3CCCC3=O)cc2c1=O` displayed a z-score of -6.73.

On to `Cc1ccc2c(c1)N(C(C)C(=O)NCc1ccccn1)C(=O)CO2` (configuration not stated), for which the z-score was -10.

Consider `COC(=O)c1c[nH]n2c(NC3CCCCCC3)c(-c3cccc(C)c3)nc12`, for which the z-score is -11.1.

Molecule `O=C(c1ccc2c(c1)N(Cc1ccccc1)CCS2)N1CCCCCC1` returned a z-score of -0.717.

Consider `Cc1ccc(-c2nnc(Nc3cccc(O)c3)c3ccccc23)cc1`, for which the z-score is -10.9.

With `CCC(=O)Nc1nc(C)c(-c2csc(Nc3cc(OC)ccc3OC)n2)s1`, the z-score is -7.32.

The molecule `c1nc(Oc2ccc3c4c2CCCN4CCC3)c2c3c(sc2n1)CCCC3` yielded a z-score of -6.99.

The molecule `Clc1ccc2nc(-c3ccccn3)c(Nc3ccc4c(c3)OCCO4)n2c1` yielded a z-score of -6.8.

`Cc1ccccc1Oc1cc([N+](=O)[O-])cc2c1C(=O)Nc1cc(Cl)ccc1O2` came in with a z-score of -16.6.

In turn, `CC(=O)Nc1ccc(S(=O)(=O)Nc2cccc3cccnc23)cc1` had a z-score of -41.8.

In the case of `COC(=O)c1c[nH]n2c(NC3CCCCCC3)c(-c3ccc(OC)cc3)nc12`, the z-score was -13.

For `CCCCCn1c(=O)[nH]c2cc(C(=O)NCc3ccccn3)ccc2c1=O`, the z-score was -16.8.

In turn, `O=S(=O)(c1ccccc1)N1CCN(c2ccc3nnc(-c4ccccc4)n3n2)CC1` registered a z-score of -12.6.

Molecule `COc1ccc(CN2C(=O)c3cccnc3C2Nc2cc(Cl)ccc2OC)cc1` (configuration not stated) showed a z-score of -12.8.

In turn, `CN(C(=O)Cc1nc(N)n[nH]1)C1(C(=O)Nc2ccccc2)CCCCC1` came in with a z-score of -17.7.
